Experimental data reported in the supplement of paper PMC10126150.
Sequences with one replicate were seen in a single cluster, so their values are uncertain.

System: ATP
Test: switch fluorescence ratio, 500 uM ATP over buffer (Cy3 cluster intensity, sum of 5 cycles each) (fold (ratio)); higher = stronger signal-on switching upon ATP binding; sequences stand for … in TCGTCGGCAGCGTCAGATGTGTATAAGAGACAGTTTTTTTTTTTTTTTTTTTTTTTTT…TC
Settings: aptamer strand: ATP DNA aptamer (quencher-CACCTGGGGGAGTATTGCGGAGGAAGG + anchor), 100 nM annealed; ATP concentration: 500 uM; one replicate
How it was run: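 Imaging in selection buffer was followed by imaging after 15 min with 500 uM ATP at 22 °C, for Cy3-labelled switching-strand clusters annealed to 100 nM quencher-labelled ATP aptamer on a modified Illumina MiSeq flow-cell. Five of these buffer/ATP cycles ran, separated by NaOH stripping and re-annealing. The fluorescence ratio per cluster is summed target-cycle over summed buffer-cycle Cy3 intensity, averaged per switch-domain sequence; clusters outside 100-1000 RFU were removed.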
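Further: ATP exposure 15 min at 22 °C before imaging.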

| Sequence | switch fluorescence ratio |
| --- | --- |
| TTCAAATCTT | 1.02 |
| TTCAACTATT | 0.985 |
| TTCAAGACCG | 1.01 |
| TTCAAGCAGC | 3.56 |
| TTCAAGTCAA | 1.08 |
| TTCAATGTTC | 1.07 |
| TTCACAGTTG | 0.979 |
| TTCACATAGG | 1.02 |
| TTCACCGTTT | 0.97 |
| TTCACTAGCT | 1.01 |
| TTCAGAAGCT | 1.12 |
| TTCAGAATAG | 1.25 |
| TTCAGACTGC | 1.1 |
| TTCAGATTAA | 1.02 |
| TTCAGGACAA | 1.01 |
| TTCAGGGGCC | 1.02 |
| TTCAGTAGAA | 1.02 |
| TTCAGTATCC | 1.02 |
| TTCAGTCAAG | 0.966 |
| TTCAGTGCTT | 1.02 |
| TTCAGTGTGT | 0.978 |
| TTCATACCCT | 1.06 |
| TTCATAGGGT | 0.949 |
| TTCATCAA | 1.01 |
| TTCATCTAGC | 1.04 |
| TTCATCTTTG | 0.98 |

| Sequence | switch fluorescence ratio |
| --- | --- |
| TTCATGACCC | 1.02 |
| TTCATGGTTC | 1.01 |
| TTCATTAAG | 0.97 |
| TTCATTACAG | 0.984 |
| TTCATTACTT | 1.02 |
| TTCCACAAAC | 1.22 |
| TTCCATGGTA | 0.986 |
| TTCCCACAAA | 0.997 |
| TTCCCAGCCT | 1.12 |
| TTCCCCGGGT | 1.61 |
| TTCCCCGTTA | 1.03 |
| TTCCCGGTCA | 1.05 |
| TTCCCGTAGC | 1.19 |
| TTCCCTGAGG | 1.05 |
| TTCCGAAATC | 5.29 |
| TTCCGATTTA | 0.98 |
| TTCCGCGCT | 1.11 |
| TTCCGCGTCT | 1.09 |
| TTCCGGCTGC | 1.17 |
| TTCCGGCTGG | 2.05 |
| TTCCGGGTCA | 1.36 |
| TTCCGGTAAA | 1.01 |
| TTCCGTCGCG | 1.37 |
| TTCCTAGGAT | 1.06 |
| TTCCTAGTTG | 1.03 |
| TTCCTATACT | 1.11 |

| Sequence | switch fluorescence ratio |
| --- | --- |
| TTCCTATTAC | 1.17 |
| TTCCTATTTC | 1.07 |
| TTCCTCACCT | 1.23 |
| TTCCTCTACC | 1.17 |
| TTCCTCTGG | 1.26 |
| TTCCTCTTAG | 1.11 |
| TTCCTCTTTT | 1.03 |
| TTCGAAAACG | 0.998 |
| TTCGAACCTG | 1.04 |
| TTCGAAGTAC | 2.23 |
| TTCGACTTCT | 1.08 |
| TTCGAGCCCT | 1.05 |
| TTCGAGGCAG | 0.997 |
| TTCGATCAGT | 0.982 |
| TTCGATTCA | 0.99 |
| TTCGATTTGT | 0.999 |
| TTCGCCCGGG | 0.949 |
| TTCGCCCTTA | 0.953 |
| TTCGCCGGGC | 1.68 |
| TTCGCCTGC | 1.01 |
| TTCGCCTGGT | 1.04 |
| TTCGGAAAG | 1.01 |
| TTCGGCCTCC | 2.15 |
| TTCGGCTCCA | 0.979 |
| TTCGGGACC | 1.02 |
| TTCGGGGACC | 0.954 |

| Sequence | switch fluorescence ratio |
| --- | --- |
| TTCGGGTCTT | 0.972 |
| TTCGGTACAG | 2.61 |
| TTCGGTGCGT | 1 |
| TTCGGTGGTG | 1.22 |
| TTCGGTTTAG | 1.01 |
| TTCGTACACG | 0.99 |
| TTCGTACGG | 0.961 |
| TTCGTAGCTT | 1.18 |
| TTCGTATGGA | 0.958 |
| TTCGTCTGGA | 0.971 |
| TTCGTGACGT | 1.01 |
| TTCGTGCAAA | 0.995 |
| TTCGTGCATT | 1.04 |
| TTCGTGGACT | 0.99 |
| TTCGTTAAGG | 0.99 |
| TTCGTTACGA | 1.03 |
| TTCGTTGAAG | 1.02 |
| TTCGTTGGAA | 1.61 |
| TTCGTTTGCC | 1.01 |
| TTCTAATGGA | 0.995 |
| TTCTACATTC | 1.03 |
| TTCTACCGCA | 4.51 |
| TTCTAGATTC | 0.998 |
| TTCTAGCTAA | 1.03 |
| TTCTATTTAG | 0.969 |
| TTCTCAGTTA | 0.982 |

| Sequence | switch fluorescence ratio |
| --- | --- |
| TTCTCCTAGC | 1.28 |
| TTCTCGGCTG | 1.03 |
| TTCTCGGTCG | 0.989 |
| TTCTCTTCTC | 1.01 |
| TTCTGAATCA | 0.972 |
| TTCTGACCGT | 1.05 |
| TTCTGACGTC | 1.02 |
| TTCTGAGTTT | 0.989 |
| TTCTGCCTTT | 0.951 |
| TTCTGCGGTC | 2.62 |
| TTCTGGAGAT | 1.01 |
| TTCTGGAGGG | 0.957 |
| TTCTGGATGG | 0.958 |
| TTCTGGGA | 1.02 |
| TTCTGGTTCT | 0.98 |
| TTCTGTA | 0.973 |
| TTCTGTAACT | 1.04 |
| TTCTGTTACC | 0.972 |
| TTCTTAACAG | 1.3 |
| TTCTTATACG | 0.952 |
| TTCTTATTT | 0.968 |
| TTCTTCACAG | 0.985 |
| TTCTTCGGA | 0.968 |
| TTCTTCTGAG | 1.06 |
| TTCTTTGGCC | 0.975 |
| TTCTTTGGCG | 0.979 |

| Sequence | switch fluorescence ratio |
| --- | --- |
| TTGAAAACGG | 0.994 |
| TTGAAACGCG | 0.988 |
| TTGAAATTCG | 0.988 |
| TTGAACGAAG | 1.01 |
| TTGAACGATA | 1.28 |
| TTGAACGTAC | 1.9 |
| TTGAAGTATT | 0.966 |
| TTGAAGTCAG | 0.978 |
| TTGAATAACT | 1.03 |
| TTGAATCTGT | 0.982 |
| TTGAATGAAA | 1.01 |
| TTGAATGACC | 1.04 |
| TTGAATTAGG | 0.984 |
| TTGAATTGTC | 0.896 |
| TTGACACCTT | 1.2 |
| TTGACATACG | 1.12 |
| TTGACCATAC | 1.55 |
| TTGACCCGTG | 1.02 |
| TTGACGACAA | 1.14 |
| TTGACGAGGG | 0.991 |
| TTGACGTTCA | 1.08 |
| TTGACGTTCT | 1.04 |
| TTGACTAGTG | 0.989 |
| TTGACTATGC | 0.964 |
| TTGACTGCTA | 1.12 |
| TTGACTGTCG | 0.954 |

| Sequence | switch fluorescence ratio |
| --- | --- |
| TTGACTTGGT | 1.01 |
| TTGAGACCCC | 0.985 |
| TTGAGATGGG | 1.01 |
| TTGAGCAATC | 3.94 |
| TTGAGCCAGG | 1.11 |
| TTGAGCCTTA | 0.976 |
| TTGAGCGCAT | 1.21 |
| TTGAGCTATG | 0.976 |
| TTGAGGT | 0.982 |
| TTGAGTAGGG | 0.977 |
| TTGAGTCCGA | 1.04 |
| TTGAGTCGG | 0.991 |
| TTGAGTGAG | 0.947 |
| TTGAGTTGA | 1.03 |
| TTGATAGTGG | 0.957 |
| TTGATATACA | 1.02 |
| TTGATATTAT | 0.99 |
| TTGATCCTTA | 1 |
| TTGATGCGAA | 1 |
| TTGATGGGCG | 1.04 |
| TTGATGTCGA | 1.03 |
| TTGATTAACC | 1.03 |
| TTGATTAACT | 1 |
| TTGATTGCA | 0.988 |
| TTGCAAAACA | 1.1 |
| TTGCAAGCCC | 1.25 |

| Sequence | switch fluorescence ratio |
| --- | --- |
| TTGCAATAGG | 0.991 |
| TTGCACGGCG | 1.02 |
| TTGCACTATC | 1.08 |
| TTGCATACAA | 1.06 |
| TTGCATCCAG | 1.07 |
| TTGCCAAAAT | 0.986 |
| TTGCCAATTA | 0.995 |
| TTGCCACGTA | 1.04 |
| TTGCCAGTAT | 1.01 |
| TTGCCCAGG | 2.69 |
| TTGCCCCGGG | 0.98 |
| TTGCCCGCGT | 0.996 |
| TTGCCCTTTT | 1.01 |
| TTGCCGCTTA | 1.08 |
| TTGCCTAGGG | 0.968 |
| TTGCCTGTGC | 1.04 |
| TTGCGATTGG | 1.01 |
| TTGCGCCCGT | 1.06 |
| TTGCGCGTGG | 0.977 |
